# Assay results from the antibiotic and cytotoxicity screens of Wong et al. (2023).
# The other results are listed elsewhere or left out.
# Key:
# HSkMC = human skeletal muscle cells; test: cytotoxicity call (relative viability < 0.9); settings: 10 µM
# HepG2 = test: cytotoxicity call (relative viability < 0.9); settings: 10 µM
# S. aureus RN4220 = test: growth inhibition call (relative growth <= 0.2); settings: 50 µM
SMILES,cytotoxicity call (HSkMC),cytotoxicity call (HepG2),growth inhibition call (S. aureus RN4220)
Cc1ccc(OC(=O)N(C)C[C@@H]2OCc3ccccc3-c3ccccc3C(=O)N([C@@H](C)CO)C[C@@H]2C)cc1,inactive,inactive,inactive
C=C1CC[C@H]2[C@H](CN)[C@@H]([C@@]3(C)CC[C@H](O)C[C@@H]3CO)CC[C@]12C,inactive,inactive,inactive
C[C@H](CO)N1C[C@H](C)[C@@H](CN(C)CC2CCCCC2)OCCCC[C@H](C)Oc2ccc(NC(=O)CCC(F)(F)F)cc2C1=O,inactive,inactive,inactive
COc1ccc(C#Cc2cnc3c(c2)C(=O)N([C@H](C)CO)C[C@@H](C)[C@H](CN(C)C(=O)CN(C)C)O3)cc1,inactive,inactive,inactive
C[C@@H]1CN([C@H](C)CO)C(=O)Cc2cc(NC(=O)c3ccncc3)ccc2O[C@@H]1CN(C)C(=O)NC1CCCCC1,inactive,inactive,inactive
COc1ccc(NC(=O)N(C)C[C@H]2OCCCC[C@@H](C)Oc3ccc(NS(=O)(=O)c4ccc(C)cc4)cc3C(=O)N([C@H](C)CO)C[C@@H]2C)cc1,inactive,inactive,inactive
COc1ccc2c3c([nH]c2c1)[C@@H](CO)N(C[C@]13CCN(CC1)CC1CCOCC1)S(=O)(=O)c1cn(cn1)C,inactive,inactive,inactive
C[C@@H]1CCCCO[C@@H](CN(C)C(=O)CCCN(C)C)[C@H](C)CN([C@H](C)CO)C(=O)c2cc(NS(=O)(=O)c3cn(C)cn3)ccc2O1,inactive,inactive,inactive
C[C@@H]1CCCCO[C@H](CN(C)Cc2ccc(C(F)(F)F)cc2)[C@@H](C)CN([C@@H](C)CO)C(=O)c2cc(NC(=O)NC3CCCCC3)ccc2O1,inactive,active,inactive
C[C@@H]1CN([C@@H](C)CO)C(=O)Cc2cc(NC(=O)C3CCCCC3)ccc2O[C@H]1CN(C)C(=O)Nc1cccc2ccccc12,inactive,inactive,inactive
COc1ccc(CN(C)C[C@H]2Oc3c(NS(=O)(=O)c4cn(C)cn4)cccc3C(=O)N([C@H](C)CO)C[C@H]2C)cc1,inactive,inactive,inactive
C[C@H](CO)N1C[C@H](C)[C@H](CN(C)S(C)(=O)=O)Oc2ccc(NS(=O)(=O)c3cn(C)cn3)cc2CC1=O,inactive,inactive,inactive
C[C@@H]1CN([C@@H](C)CO)C(=O)c2cccc(NS(C)(=O)=O)c2O[C@@H]1CN(C)S(C)(=O)=O,inactive,inactive,inactive
Cc1noc(C)c1S(=O)(=O)Nc1ccc2c(c1)C(=O)N([C@@H](C)CO)C[C@H](C)[C@H](CN(C)C(=O)Nc1ccccc1)OCCCC[C@H](C)O2,inactive,inactive,inactive
COc1cccc(S(=O)(=O)N(C)C[C@@H]2Oc3ncc(-c4ccc(F)cc4)cc3C(=O)N([C@H](C)CO)C[C@@H]2C)c1,inactive,inactive,inactive
CC(=O)C1(O)CCC2C3CCC4=CC(=O)CCC4(C)C3CCC21C (configuration not stated),inactive,inactive,inactive
CN(C)CCCNC(=O)[C@@H]1[C@@H](CO)[C@@H]2Cn3c(ccc(-c4ccncc4)c3=O)[C@H]1N2C(=O)C1CC1,inactive,inactive,inactive
C[C@@H]1COCCC(=O)N1,inactive,inactive,inactive
COc1ccc(S(=O)(=O)Nc2cccc3c2O[C@@H](CN(C)S(=O)(=O)c2ccc(OC)cc2)[C@H](C)CN([C@H](C)CO)C3=O)cc1,inactive,inactive,inactive
C[C@@H]1CN([C@H](C)CO)C(=O)c2cc(NC(=O)Nc3ccc4c(c3)OCO4)ccc2O[C@@H](C)CCCCO[C@@H]1CN(C)Cc1ccc2c(c1)OCO2,inactive,active,inactive
C[C@H]1CN([C@@H](C)CO)C(=O)c2cc(NS(=O)(=O)c3ccc(F)cc3)ccc2O[C@H]1CN(C)S(C)(=O)=O,inactive,inactive,inactive
C[C@H](CO)N1C[C@H](C)[C@H](CN(C)S(=O)(=O)c2ccccc2)Oc2c(NC(=O)Nc3cccc4ccccc34)cccc2C1=O,inactive,inactive,inactive
C[C@H](CO)N1C[C@H](C)[C@@H](CN(C)C(=O)Nc2cccc3ccccc23)OCCCC[C@H](C)Oc2ccc(NS(=O)(=O)c3ccccc3)cc2C1=O,inactive,inactive,inactive
C[C@@H]1CN([C@@H](C)CO)C(=O)c2cc(NC(=O)CCCN(C)C)ccc2O[C@@H]1CN(C)S(=O)(=O)c1ccccc1,inactive,inactive,inactive
